# Source: paper PMC4336329 (PLoS ONE, 2015)
# The whole screen tested about 310,000 compounds, of which about 14,000 (4.5%) showed an effect of 50% or more. The effect is printed as a negative number. The list shows a part of the results.
# Biological target: human ether-à-go-go-related gene (hERG) potassium channel (human, UniProt Q12809)
# Assay: primary screen, population patch clamp on CHO cells stably expressing hERG
# 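Further: peak tail current of the secondary pulse compared with the same well before compound.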
# human ether-à-go-go-related gene (hERG) potassium channel, sequence (Q12809 whole entry, looked up): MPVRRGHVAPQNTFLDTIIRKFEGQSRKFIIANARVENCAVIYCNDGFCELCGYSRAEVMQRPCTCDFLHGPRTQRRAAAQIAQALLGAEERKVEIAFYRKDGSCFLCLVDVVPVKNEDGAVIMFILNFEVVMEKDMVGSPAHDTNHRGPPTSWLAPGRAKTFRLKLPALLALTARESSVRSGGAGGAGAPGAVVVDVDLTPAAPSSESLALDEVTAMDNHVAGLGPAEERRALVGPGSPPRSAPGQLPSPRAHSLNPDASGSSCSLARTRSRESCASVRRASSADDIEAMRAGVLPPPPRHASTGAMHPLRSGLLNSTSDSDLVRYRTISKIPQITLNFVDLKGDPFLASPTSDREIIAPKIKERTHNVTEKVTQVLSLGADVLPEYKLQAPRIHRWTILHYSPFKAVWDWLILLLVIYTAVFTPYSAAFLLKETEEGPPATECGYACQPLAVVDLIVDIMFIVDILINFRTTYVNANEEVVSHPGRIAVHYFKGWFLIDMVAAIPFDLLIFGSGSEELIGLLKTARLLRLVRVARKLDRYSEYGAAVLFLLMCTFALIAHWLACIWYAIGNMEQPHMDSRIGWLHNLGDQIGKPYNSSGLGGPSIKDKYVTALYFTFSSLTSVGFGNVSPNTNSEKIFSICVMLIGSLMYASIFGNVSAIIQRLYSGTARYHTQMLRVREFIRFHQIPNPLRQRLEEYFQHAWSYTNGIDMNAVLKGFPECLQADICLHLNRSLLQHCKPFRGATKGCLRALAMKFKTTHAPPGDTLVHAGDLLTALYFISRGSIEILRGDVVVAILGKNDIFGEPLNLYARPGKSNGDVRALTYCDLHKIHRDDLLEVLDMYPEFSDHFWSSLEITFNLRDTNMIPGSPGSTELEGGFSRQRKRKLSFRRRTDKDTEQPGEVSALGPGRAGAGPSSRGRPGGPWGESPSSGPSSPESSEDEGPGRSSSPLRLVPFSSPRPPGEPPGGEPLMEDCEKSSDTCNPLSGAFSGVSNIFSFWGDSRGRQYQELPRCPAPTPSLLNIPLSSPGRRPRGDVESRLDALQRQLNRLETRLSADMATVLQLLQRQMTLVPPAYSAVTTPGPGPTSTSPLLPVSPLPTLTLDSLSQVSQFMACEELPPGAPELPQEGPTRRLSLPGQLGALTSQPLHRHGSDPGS
row,SMILES,"hERG current change (%, negative = inhibition) at 10uM"
1,COc1ccc(N(CC(=O)NCc2ccc(C)cc2)S(=O)(=O)c2c(C)[nH]c(=O)[nH]c2=O)cc1,23.1%
2,CC1CCN(C2CC(=O)N(c3ccccc3)C2=O)CC1 (stereo not drawn),8.4%
3,N/C(=N\OC(=O)c1cc(Cl)ccc1Cl)c1ccccn1,-16.5%
4,O=C(CCC1CCCC1)NNC(=O)c1cccc(Cl)c1,9.7%
5,CCCCCC1NC(=O)NC1CCCCCC(=O)O (stereo not drawn),2.14%
6,O=C1CCC(N2C(=O)c3ccccc3C2=O)C(=O)N1 (stereo not drawn),30.7%
7,COc1ccc2[nH]c(C(=O)O)c(NC(=O)c3cc(OC)c(OC)c(OC)c3)c2c1,17.8%
8,CC1=CC(C)=Nc2ccc(C)cc2N1,1.98%
9,Cc1csc(NC(=O)CSc2nc(=O)cc(N)n2-c2ccc(F)cc2)n1,13.2%
10,COC(=O)C1CCN(c2cc(=O)n(-c3ccc(OC)cc3)c(=O)[nH]2)CC1,9.37%
11,O=C1CNC(=O)/C1=C\c1ccc(O)cc1,11.1%
12,Cc1nc(NCC2CCCO2)nc2c1C(=O)CC(C)(C)C2 (stereo not drawn),10.4%
13,Cc1[nH]nc2c1C(C(C)C)C(C#N)=C(N)O2 (stereo not drawn),10.3%
14,Cc1noc(C(=O)Nc2sc3c(c2C#N)CCC3)c1Cl,14.1%
15,Cc1ccc(N/C=C(/C#N)c2ccsc2)cc1,-5.02%
16,O=c1c2ccccc2c(=O)n(Cc2ccccc2)n1Cc1ccccc1,16.8%
17,CCSc1nc(-c2ccc(OC)cc2)n(-c2nc3ccccc3s2)n1,-4.52%
18,O=C(Nc1ccccc1N1CCOCC1)c1ccccc1NS(=O)(=O)c1ccc(F)cc1,0.521%
19,COc1ccc(-c2nc(CS(=O)CC(=O)N3CCc4ccccc4C3)c(C)o2)cc1 (stereo not drawn),-19.6%
20,COc1ccc(/C=N/Nc2cc(C)nc(N3CCOCC3)n2)c(OC)c1,18.5%
21,O=C(c1cc(-c2ccccc2O)on1)N1CCCC1,7.79%
22,CCN(CC)S(=O)(=O)c1ccc(N2CCOCC2)c(NC(=O)c2ccc(F)cc2)c1,-72.3%
23,COC(=O)c1ccc(NC(=O)CSCc2ccccc2C)cc1,-24.8%

row,SMILES,"hERG current change (%, negative = inhibition) at 10uM"
1,CC(C)CCNC(=O)COc1cccc2c1OC(C)(C)C2,2.83%
2,Cc1ccc(C)c(N(CC(=O)NN=C2CCCCCCC2)S(C)(=O)=O)c1,-5.63%
3,CC(C)=CC(=O)Nc1nnc(-c2ccccc2)s1,-4.28%
4,CC12CCC(=O)N1C(C(=O)Nc1cccc3ccccc13)CS2 (stereo not drawn),4.6%
5,Fc1ccccc1NC(=S)NC1CCCC1,14%
6,COc1ccccc1NC(=O)C(CCS(C)(=O)=O)N1C(=O)c2ccccc2C1=O (stereo not drawn),14.2%
7,CCSc1nnc(-c2ccccc2NC(=O)CC)c(=O)[nH]1,20.4%
8,COc1ccc(CNC(=O)CN(Cc2ccc(F)cc2)C(=O)c2csnn2)cc1,-70.4%
9,O=C(Cn1cc[n+](CC(=O)c2ccccc2)c1)c1ccccc1.[Br-],0.024%
10,Cc1cc(CNC(=O)CC2C(=O)NCCN2Cc2ccc(-c3ccccc3)cc2)nn1C (stereo not drawn),-4.68%
11,CCOC(=O)C12CNC(=O)C(C(=O)OCC)(CNC1=O)C2,22.8%
12,COc1ccc(-c2sc3cc4c(cc3c2C#CC2(O)CCCCC2)OCO4)cc1,14.4%
13,O=C(NCC1CCCO1)C(c1cccs1)N(Cc1ccccc1Cl)C(=O)c1ccc(-c2ccccc2)[nH]1 (stereo not drawn),24.2%
14,O=C(c1ccc(Cl)cc1)N1CCC(C(=O)N2CCCc3ccccc32)CC1,-76.4%
15,CCOc1ccc(NC(=O)Cc2ccccc2)cc1,-4.88%
16,COC(=O)C1=CN(CCCN2CCCC2=O)C=C(C(=O)OC)C1c1cccs1,-25.1%
17,OC1(c2ccc(Br)cc2)CCN(Cc2cccc(Br)c2)CC1,-42.1%
18,O=C(Nc1ccccc1)c1cccc(-c2nnc(-c3ccccc3)o2)c1,4.53%
19,Cc1ccc(NC(=S)NCCSc2ccc(Cl)cc2)cc1,7.21%
20,COC(=O)c1ccc(COc2ccccc2/C=N/NS(=O)(=O)c2ccc(C)cc2)cc1,11.5%
21,CCCCOc1ccccc1NC(=O)c1ccc(=O)[nH]c1,1.28%
22,N#CC1=C(SCc2ccc(C#N)cc2)N=C(N)C(c2nc(-c3ccccc3)cs2)C12CCCCC2 (stereo not drawn),12.3%
